1 molecule from patent US6730699B2, “Water soluble paclitaxel derivatives” (priority 2001, dated 2004) can be followed below.

The assay concerns paclitaxel-dependent CHO mutant Tax-18 cells. As to conditions: 6 days at 37° C.

In the case of `CC(=O)O[C@H]1C(=O)[C@@]2(C)[C@H]([C@H](OC(=O)c3ccccc3)[C@]3(O)C[C@H](OC(=O)[C@H](O)[C@@H](NC(=O)c4ccccc4)c4ccccc4)C(C)=C1C3(C)C)[C@]1(OC(C)=O)CO[C@@H]1C[C@@H]2O` [Paclitaxel, paclitaxel], the “concentrations that support growth of Tax-18 cells” value was 0.05 to 0.2 µM.
